Experimental data taken from the supplement of paper PMC12217912.
This is one part of the list. Sequences were assembled here from the parent chain. Values near 0.05 are background.

B1: TEV protease; numbered along this chain (parent)
chain: MGESLFKGPRDYNPISSSICHLTNESDGHTTSLYGIGFGPFIITNKHLFRRNNGTLVVQSLHGVFKVKDTTTLQQHLVDGRDMIIIRMPKDFPPFPQKLKFREPQREERICLVTTNFQTKSMSSMVSDTSCTFPSGDGIFWKHWIQTKDGQCGSPLVSTRDGFIVGIHSASNFTNTNNYFTSVPKNFMELLTNQEAQQWVSGWRLNADSVLWGGHKVFMVKPEEPFQPVKEATQL

Variants of: B1
Test: raw area under fraction-flipped curve 0-4 h after induction (AUC4h, not background-subtracted), DNA-recorder readout of cleavage of the substrate (dimensionless); higher = more cleavage of the substrate by the protease variant
Settings: temperature: 34 °C; time window: 0-4 h after rhamnose induction
Method: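 In vivo DNA recorder in E. coli TOP10(DE3) ΔrhaA at 34 °C. Each TEVp single-site mutant (parent TEVp 0) is paired with a single-site variant of the 7-mer TEVs (canonical ENLYFQ|S). The substrate sits between flexible linkers in a Bxb1-sfGFP-TEVs-SsrA fusion, so cleavage stabilises Bxb1 and speeds flipping of a recombination array, read by NGS. The value is the raw area under the fraction-flipped curve over 0-4 h after rhamnose induction (AUC4h), with ≥20 reads per time point. It is not background-subtracted; inactive controls average about 0.047.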
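Further: Bxb1 expression induced with 0.2% (w/v) L-rhamnose at OD600 near 0.5, cultures sampled hourly, flipped fraction per protease–substrate barcode pair counted by paired-end Illumina sequencing.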

Row | Variant | area with substrate ENAYFQS | area with substrate ENCYFQS | area with substrate ENDYFQS | area with substrate ENEYFQS | area with substrate ENFYFQS | area with substrate ENGYFQS | area with substrate ENIYFQS | area with substrate ENKYFQS | area with substrate ENMYFQS | area with substrate ENNYFQS | area with substrate ENPYFQS | area with substrate ENQYFQS | area with substrate ENRYFQS | area with substrate ENSYFQS | area with substrate ENTYFQS | area with substrate ENVYFQS | area with substrate ENYYFQS | area with substrate ENHYFQS | area with substrate ENWYFQS
1 | D11N | 0.0758 | 0.0675 | 0.0664 | 0.067 | 0.0613 | 0.0706 | 0.102 | 0.062 | 0.0799 | 0.0647 | 0.0612 | 0.0657 | 0.085 | 0.0564 | 0.0624 | 0.0814 | 0.0618 | – | –
2 | D11H | 0.0544 | 0.0787 | 0.0602 | 0.0647 | 0.0644 | 0.0575 | – | 0.0524 | – | 0.0593 | 0.0669 | 0.0489 | 0.0567 | 0.0625 | 0.0826 | 0.0714 | – | 0.0598 | –
3 | L191D | 0.0554 | 0.0585 | – | 0.0498 | 0.0565 | – | 0.0289 | 0.0629 | 0.0602 | – | – | 0.0628 | – | – | 0.0591 | – | 0.0659 | 0.0517 | –
4 | E103V | 0.0681 | 0.0319 | 0.0629 | 0.0663 | 0.0527 | 0.0475 | – | – | – | 0.0502 | – | 0.0582 | 0.0695 | 0.0531 | 0.0662 | 0.0788 | – | 0.0585 | –
5 | Q105E | 0.0554 | – | 0.0651 | – | 0.0724 | – | 0.103 | 0.0529 | – | 0.0665 | – | – | 0.062 | – | – | 0.0957 | – | – | –
6 | P155N | 0.0781 | 0.0561 | 0.0433 | 0.0431 | 0.0419 | 0.0535 | – | 0.0414 | 0.0841 | 0.0644 | 0.0404 | 0.0523 | 0.0347 | 0.0629 | – | 0.0499 | – | 0.0465 | 0.0426
7 | T233N | 0.0702 | 0.0493 | 0.0533 | 0.056 | 0.0587 | – | 0.126 | 0.0616 | – | – | – | 0.0715 | 0.056 | – | – | – | – | 0.0667 | 0.0611
8 | T233R | 0.0726 | – | 0.053 | 0.0626 | 0.0267 | 0.069 | 0.0912 | – | – | 0.0629 | 0.0624 | 0.0434 | 0.0598 | 0.0578 | 0.0685 | – | 0.0588 | 0.0607 | –
9 | G28F | 0.0504 | 0.0573 | – | 0.05 | 0.0543 | 0.0404 | 0.149 | – | – | 0.0553 | 0.0624 | 0.0653 | 0.0589 | – | 0.0561 | 0.0625 | 0.0635 | 0.0722 | 0.0511
10 | S209F | 0.0691 | 0.0766 | 0.0516 | 0.0697 | – | 0.0651 | 0.097 | – | 0.0754 | 0.0647 | – | 0.0581 | 0.0509 | 0.0549 | – | 0.0741 | 0.0577 | – | –
11 | F117R | 0.0649 | – | 0.0837 | – | 0.061 | – | – | – | – | – | 0.0505 | 0.0587 | – | 0.0643 | – | 0.0743 | – | 0.059 | 0.0489
12 | E189A | 0.044 | 0.0619 | – | 0.0671 | 0.0412 | – | – | – | 0.0862 | – | 0.0445 | – | – | 0.0703 | – | – | – | 0.0882 | 0.0074
13 | K230I | 0.06 | 0.0657 | 0.0619 | – | 0.0309 | 0.0623 | 0.131 | – | – | 0.0718 | 0.0585 | 0.0649 | 0.0675 | – | – | 0.0685 | 0.0492 | 0.0629 | –
14 | F38G | 0.0513 | 0.0595 | 0.0402 | 0.0545 | – | – | – | 0.0395 | – | – | 0.0455 | 0.0403 | – | – | 0.0409 | – | – | – | –
15 | G213L | 0.0663 | – | 0.056 | – | 0.0517 | – | – | – | – | – | – | 0.0555 | 0.0575 | 0.0599 | – | 0.0677 | – | 0.0665 | –
16 | S123E | 0.0605 | 0.0563 | 0.0464 | 0.0575 | 0.0714 | 0.054 | 0.116 | – | 0.056 | 0.0637 | 0.0374 | 0.0629 | 0.0654 | 0.0644 | 0.0565 | 0.0644 | 0.0585 | 0.0565 | 0.0565
17 | G37M | 0.0731 | 0.045 | 0.0571 | 0.0462 | 0 | 0.0549 | – | – | 0.058 | 0.0529 | 0.0571 | 0.056 | 0.0523 | – | – | – | – | – | 0.0387
18 | N175E | 0.0642 | 0.0469 | 0.0699 | 0.0612 | 0.0558 | 0.0511 | – | – | – | – | 0.0674 | – | – | 0.0696 | – | 0.0628 | – | 0.0635 | –
19 | T132Q | 0.0547 | – | 0.0621 | 0.0599 | 0.0667 | 0.0644 | 0.0646 | – | – | 0.053 | 0.123 | – | – | 0.0611 | – | 0.0646 | 0.0548 | 0.0656 | 0.0652
20 | G39C | 0.0315 | – | 0.0473 | 0.0349 | 0.0373 | 0.0441 | 0.0437 | 0.0428 | 0.0436 | – | – | 0.0459 | 0.046 | 0.0149 | 0.0622 | – | – | 0.0351 | –
21 | Q151G | 0.0481 | 0.0434 | 0.0664 | 0.0531 | – | – | 0.0781 | – | 0.0598 | – | 0.0521 | 0.0602 | 0.0772 | 0.0667 | 0.0529 | – | – | 0.0484 | 0.0055
22 | Q234L | 0.0657 | 0.0707 | 0.0572 | 0.0628 | – | 0.0267 | – | – | – | – | – | 0.0683 | – | 0.11 | – | 0.0621 | – | 0.0573 | –
23 | P225V | 0.057 | 0.0625 | 0.0635 | – | 0.0503 | 0.059 | 0.102 | – | 0.0821 | 0.0568 | 0.0698 | 0.0614 | 0.0423 | 0.0588 | 0.148 | 0.0715 | 0.0619 | 0.0547 | –
24 | R50E | 0.0512 | – | 0.0531 | 0.0816 | – | 0.0594 | – | – | 0.0604 | – | – | 0.0674 | 0.0756 | – | – | 0.0649 | 0.0711 | 0.0545 | 0.079
25 | W199R | 0.0874 | 0.066 | 0.0582 | 0.0767 | 0.0633 | 0.0687 | 0.0644 | 0.069 | – | 0.06 | 0.0624 | 0.067 | 0.0724 | 0.0599 | 0.0573 | 0.0631 | 0.0609 | 0.0732 | –
26 | S154R | 0.0558 | 0.0646 | 0.0674 | 0.057 | 0.075 | 0.0557 | 0.0791 | 0.0672 | 0.0645 | – | 0.0507 | 0.0597 | 0.0561 | 0.0582 | 0.0644 | 0.0558 | 0.0666 | 0.0629 | –
27 | T31K | 0.0544 | 0.0617 | 0.0598 | – | 0.0619 | 0.0548 | 0.0558 | – | 0.0613 | 0.0573 | 0.0551 | 0.0612 | – | 0.0566 | 0.0858 | 0.0642 | 0.0638 | – | 0.0595
